Reference: patent US20250263469A1 (HOSPITAL FOR SICK CHILDREN, published 2025)

B1: MB 254 (other)
chain 1: DIQMTQSPSSLSASVGDRVTITCRASQGISSYLAWYQQKPGKAPKLLIYDASSLQIGVPSRFSGSGSGTDFTLTISSLQPEDFATYYCLQSYSTPPWTFGQGTKVEIKRTVAAPSVFIFPPSDEQLKSGTASVVCLLNNFYPREAKVQWKVDNALQSGNSQESVTEQDSKDSTYSLSSTLTLSKADYEKHKVYACEVTHQGLSSPVTKSFNRGECGGGGSGGGGSGGGGSGGGGSGGGGSGGGGSGGGGSGGGGSGGGGSGGGGSGGGGSGGGGSGGGGSGGGGSEVQLLESGGGLVQPGGSLRLSCAASGFTFSSSAMHWVRQAPGKGLEWVSAIGTGGDTYYADSVKGRFTISRDNSKNTLYLQMNSLRAEDTAVYYCAREGDGYNFYFDYWGQGTLVTVSSASTKGPSVFPLAPSSKSTSGGTAALGCLVKDYFPEPVTVSWNSGALTSGVHTFPAVLQSSGLYSLSSVVTVPSSSLGTQTYICNVNHKPSNTKVDKKVEPKSCGGGGSGGGGSGGGGSGGGGSGGGG[not shown - about 200 residues]
chain 2: [not shown - human IgG1 Fc]GGGGSGGGGSGGGGSGGGGSGGGGSGGGGSGGGGSGGGGSGGGGSGGGGSGGGGSGGGGSGGGGSGGGGS[not shown - human IgG1 Fc]GGGGSGGGGSGGGGSGGGGSGGGGSGGSSQIRQNYSTDVEAAVNSLVNLYLQASYTYLSLGFYFDRDDVALEGVSHFFRELAEEKREGYERLLKMQNQRGGRALFQDIKKPAEDEW
chain 3: DIQMTQSPSSLSASVGDRVTITCRASQGISSYLAWYQQKPGKAPKLLIYDASSLQIGVPSRFSGSGSGTDFTLTISSLQPEDFATYYCLQSYSTPPWTFGQGTKVEIKRTVAAPSVFIFPPSDEQLKSGTASVVCLLNNFYPREAKVQWKVDNALQSGNSQESVTEQDSKDSTYSLSSTLTLSKADYEKHKVYACEVTHQGLSSPVTKSFNRGECGGGGSGGGGSGGGGSGGGGSGGGGSGGGGSGGGGSGGGGSGGGGSGGGGSGGGGSGGGGSGGGGSGGGGSEVQLLESGGGLVQPGGSLRLSCAASGFTFSSSAMHWVRQAPGKGLEWVSAIGTGGDTYYADSVKGRFTISRDNSKNTLYLQMNSLRAEDTAVYYCAREGDGYNFYFDYWGQGTLVTVSSASTKGPSVFPLAPSSKSTSGGTAALGCLVKDYFPEPVTVSWNSGALTSGVHTFPAVLQSSGLYSLSSVVTVPSSSLGTQTYICNVNHKPSNTKVDKKVEPKSCGGGGSGGGGSGGGGSGGGGSGGGGSGKTPDAMKAAMALEKKLNQALLDLHALGSARTDPHLCDFLETHFLDEEVKLIKKMGDHLTNLHRLGGPEAGLGEYLFERLTLRHD
B2: MB 64 (other)
chain 1: DIQMTQSPSSLSASVGDRVTITCRASQGISSHLAWYQQKPGKAPKLLIYDASNLETGVPSRFSGSGSGTDFTLTISSLQPEDFATYYCQQTYSTPWTFGQGTKVEIKRTVAAPSVFIFPPSDEQLKSGTASVVCLLNNFYPREAKVQWKVDNALQSGNSQESVTEQDSKDSTYSLSSTLTLSKADYEKHKVYACEVTHQGLSSPVTKSFNRGECGGGGSGGGGSGGGGSGGGGSGGGGSGGGGSGGGGSGGGGSGGGGSGGGGSGGGGSGGGGSGGGGSGGGGSEVQLLESGGGLVQPGGSLRLSCAASGFPFSQHGMHWVRQAPGKGLEWVSAIDRSGSYIYYADSVKGRFTISRDNSKNTLYLQMNSLRAEDTAVYYCARDTYGGKVTYFDYWGQGTLVTVSSASTKGPSVFPLAPSSKSTSGGTAALGCLVKDYFPEPVTVSWNSGALTSGVHTFPAVLQSSGLYSLSSVVTVPSSSLGTQTYICNVNHKPSNTKVDKKVEPKSCGGGGSGGGGSGGGGSGGGGSGGGG[not shown - about 200 residues]
chain 2: B1 chain 2
chain 3: DIQMTQSPSSLSASVGDRVTITCRASQGISSHLAWYQQKPGKAPKLLIYDASNLETGVPSRFSGSGSGTDFTLTISSLQPEDFATYYCQQTYSTPWTFGQGTKVEIKRTVAAPSVFIFPPSDEQLKSGTASVVCLLNNFYPREAKVQWKVDNALQSGNSQESVTEQDSKDSTYSLSSTLTLSKADYEKHKVYACEVTHQGLSSPVTKSFNRGECGGGGSGGGGSGGGGSGGGGSGGGGSGGGGSGGGGSGGGGSGGGGSGGGGSGGGGSGGGGSGGGGSGGGGSEVQLLESGGGLVQPGGSLRLSCAASGFPFSQHGMHWVRQAPGKGLEWVSAIDRSGSYIYYADSVKGRFTISRDNSKNTLYLQMNSLRAEDTAVYYCARDTYGGKVTYFDYWGQGTLVTVSSASTKGPSVFPLAPSSKSTSGGTAALGCLVKDYFPEPVTVSWNSGALTSGVHTFPAVLQSSGLYSLSSVVTVPSSSLGTQTYICNVNHKPSNTKVDKKVEPKSCGGGGSGGGGSGGGGSGGGGSGGGGSGKTPDAMKAAMALEKKLNQALLDLHALGSARTDPHLCDFLETHFLDEEVKLIKKMGDHLTNLHRLGGPEAGLGEYLFERLTLRHD
B3: MB 120 (other)
chain 1: EIVMTQSPATLSVSPGERATLSCRASQSVSSRYLAWYQQKPGQAPRLLIYGASTRATGIPARFSGSGSGTEFTLTISSLQSEDFAVYYCQQYYTTPRTFGQGTRLEIKRTVAAPSVFIFPPSDEQLKSGTASVVCLLNNFYPREAKVQWKVDNALQSGNSQESVTEQDSKDSTYSLSSTLTLSKADYEKHKVYACEVTHQGLSSPVTKSFNRGECGGGGSGGGGSGGGGSGGGGSGGGGSGGGGSGGGGSGGGGSGGGGSGGGGSGGGGSGGGGSGGGGSGGGGSQVQLVQSGAEVKKPGASVKVSCKASGYTFTSYDINWVRQAPGQGLEWMGMIDPSGGSTSYAQKFQGRVTMTRDTSTSTVYMELSSLRSEDTAVYYCAKDFGGGTRYDYWYFDLWGRGTLVTVSSASTKGPSVFPLAPSSKSTSGGTAALGCLVKDYFPEPVTVSWNSGALTSGVHTFPAVLQSSGLYSLSSVVTVPSSSLGTQTYICNVNHKPSNTKVDKKVEPKSCGGGGSGGGGSGGGGSGGGGSGGGG[not shown - about 200 residues]
chain 2: B1 chain 2
chain 3: EIVMTQSPATLSVSPGERATLSCRASQSVSSRYLAWYQQKPGQAPRLLIYGASTRATGIPARFSGSGSGTEFTLTISSLQSEDFAVYYCQQYYTTPRTFGQGTRLEIKRTVAAPSVFIFPPSDEQLKSGTASVVCLLNNFYPREAKVQWKVDNALQSGNSQESVTEQDSKDSTYSLSSTLTLSKADYEKHKVYACEVTHQGLSSPVTKSFNRGECGGGGSGGGGSGGGGSGGGGSGGGGSGGGGSGGGGSGGGGSGGGGSGGGGSGGGGSGGGGSGGGGSGGGGSQVQLVQSGAEVKKPGASVKVSCKASGYTFTSYDINWVRQAPGQGLEWMGMIDPSGGSTSYAQKFQGRVTMTRDTSTSTVYMELSSLRSEDTAVYYCAKDFGGGTRYDYWYFDLWGRGTLVTVSSASTKGPSVFPLAPSSKSTSGGTAALGCLVKDYFPEPVTVSWNSGALTSGVHTFPAVLQSSGLYSLSSVVTVPSSSLGTQTYICNVNHKPSNTKVDKKVEPKSCGGGGSGGGGSGGGGSGGGGSGGGGSGKTPDAMKAAMALEKKLNQALLDLHALGSARTDPHLCDFLETHFLDEEVKLIKKMGDHLTNLHRLGGPEAGLGEYLFERLTLRHD

Molecular target: SARS-CoV-2 Spike on pseudotyped virus (PsV) (SARS-CoV-2)
Experiment: cell-based or functional assay

Binder	Median IC50, SARS-CoV-2 PsV neutralization [µg/mL]
B1	9.3
B2	14
B3	7.2

Molecular target: SARS-CoV-2 Spike on pseudotyped virus (PsV) (SARS-CoV-2)
Experiment: cell-based or functional assay
Remark: another data set of the same source

Binder	IC50 SARS-CoV2 PsV, MB [µg/mL]
B1	9.3
B2	14
B3	7.2
